Laboratory results reported in the supplement of paper PMC12217912.
Some of the results follow. The full chains were built here from the parent and the listed change. Values near 0.05 are background.

B1: TEV protease; numbered along this chain (parent)
chain: MGESLFKGPRDYNPISSSICHLTNESDGHTTSLYGIGFGPFIITNKHLFRRNNGTLVVQSLHGVFKVKDTTTLQQHLVDGRDMIIIRMPKDFPPFPQKLKFREPQREERICLVTTNFQTKSMSSMVSDTSCTFPSGDGIFWKHWIQTKDGQCGSPLVSTRDGFIVGIHSASNFTNTNNYFTSVPKNFMELLTNQEAQQWVSGWRLNADSVLWGGHKVFMVKPEEPFQPVKEATQL

Variants of: B1
Experiment: raw area under fraction-flipped curve 0-4 h after induction (AUC4h, not background-subtracted), DNA-recorder readout of cleavage of the substrate (dimensionless); higher = more cleavage of the substrate by the protease variant
Settings: temperature: 34 °C; time window: 0-4 h after rhamnose induction
Description: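 In vivo DNA recorder in E. coli TOP10(DE3) ΔrhaA at 34 °C. Each TEVp single-site mutant (parent TEVp 0) is paired with a single-site variant of the 7-mer TEVs (canonical ENLYFQ|S). The substrate sits between flexible linkers in a Bxb1-sfGFP-TEVs-SsrA fusion, so cleavage stabilises Bxb1 and speeds flipping of a recombination array, read by NGS. The value is the raw area under the fraction-flipped curve over 0-4 h after rhamnose induction (AUC4h), with ≥20 reads per time point. It is not background-subtracted; inactive controls average about 0.047.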
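Note: Bxb1 expression induced with 0.2% (w/v) L-rhamnose at OD600 near 0.5, cultures sampled hourly, flipped fraction per protease–substrate barcode pair counted by paired-end Illumina sequencing.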

Variant	area with substrate CNLYFQS	area with substrate DNLYFQS	area with substrate FNLYFQS	area with substrate HNLYFQS	area with substrate INLYFQS	area with substrate KNLYFQS	area with substrate LNLYFQS	area with substrate NNLYFQS	area with substrate PNLYFQS	area with substrate SNLYFQS	area with substrate TNLYFQS	area with substrate VNLYFQS	area with substrate WNLYFQS	area with substrate YNLYFQS	area with substrate GNLYFQS	area with substrate QNLYFQS	area with substrate MNLYFQS	area with substrate RNLYFQS
G39I	0.0399	0.0323	0.021	0.0417	0.0489	0.0322	0.049	0.0457	0.0511	0.225	0.0415	0.0555	0.044	0.0457				
I19Y	0.0525	0.0417	0.0414	0.0501	0.055	0.0375	0.0546		0.0543	0.0607	0.0533		0.0449		0.0486	0.0508		
I19V	0.0562	0.0851		0.076	0.08	0.0604	0.0477		0.0664	0.076	0.0661		0.0608				0.0734	
D27C	0.0672	0.066	0.0555	0.0632	0.0621	0.0909	0.0737	0.0632	0.0613	0.0526	0.0639	0.0583	0.0585		0.0603			
D27W	0.0538	0.0568	0.053	0.06	0.0629	0.0696	0.0652	0.062	0.0653		0.0572		0.0448	0.0615	0.0483		0.0606	
L22E	0.0525	0.0404	0.0379	0.0468	0.0483	0.0451	0.0422	0.0407	0.0481	0.0541	0.0403	0.0454	0.0442	0.0407	0.0502		0.0571	0.0418
L22I	0.0835	0.0918	0.0702	0.0479	0.0585	0.0621	0.0688	0.0641	0.0679	0.0879	0.0764	0.0765	0.0632		0.0506	0.075	0.0811	
L22P	0.0473	0.0643	0.0451	0.0304	0.0328	0.044	0.0401	0.032	0.036	0.0455	0.0458		0.0462	0.0462	0.0404	0.053	0.0457	0.0433
G37I	0.0593	0.0711	0.0563	0.0555		0.0472			0.0495	0.0554	0.0558		0.0552		0.0571		0.0543	
G37W	0.0662	0.0576	0.0771	0.0651	0.0533	0.0572	0.0554		0.0607		0.06		0.0398	0.0473	0.0592			
G37T	0.0882	0.0808		0.0637	0.0303	0.0594	0.103	0.0466	0.0881	0.0556	0.051			0.0631	0.0715		0.059	
H29N	0.0658	0.0381	0.063	0.0677	0.0625	0.0663	0.0623	0.0483	0.0681		0.0626		0.0695	0.0696	0.051		0.0769	0.0662
H29C	0.084	0.0791	0.0629	0.0705	0.0666	0.0592	0.0731			0.0606	0.08	0.0467	0.0611	0.0588		0.0629	0.0698	
